Laboratory results published in the supplement of paper PMC12217912.
The other results are listed elsewhere or left out. The full chains were built here from the parent and the listed change. Inactive controls read about 0.05.

B1: TEV protease; numbered along this chain (parent)
chain: MGESLFKGPRDYNPISSSICHLTNESDGHTTSLYGIGFGPFIITNKHLFRRNNGTLVVQSLHGVFKVKDTTTLQQHLVDGRDMIIIRMPKDFPPFPQKLKFREPQREERICLVTTNFQTKSMSSMVSDTSCTFPSGDGIFWKHWIQTKDGQCGSPLVSTRDGFIVGIHSASNFTNTNNYFTSVPKNFMELLTNQEAQQWVSGWRLNADSVLWGGHKVFMVKPEEPFQPVKEATQL

Variants of: B1
Assay: raw area under fraction-flipped curve 0-4 h after induction (AUC4h, not background-subtracted), DNA-recorder readout of cleavage of the substrate (dimensionless); higher = more cleavage of the substrate by the protease variant
Conditions: temperature: 34 °C; time window: 0-4 h after rhamnose induction
Description: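 In vivo DNA recorder in E. coli TOP10(DE3) ΔrhaA at 34 °C. Each TEVp single-site mutant (parent TEVp 0) is paired with a single-site variant of the 7-mer TEVs (canonical ENLYFQ|S). The substrate sits between flexible linkers in a Bxb1-sfGFP-TEVs-SsrA fusion, so cleavage stabilises Bxb1 and speeds flipping of a recombination array, read by NGS. The value is the raw area under the fraction-flipped curve over 0-4 h after rhamnose induction (AUC4h), with ≥20 reads per time point. It is not background-subtracted; inactive controls average about 0.047.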
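Also: Bxb1 expression induced with 0.2% (w/v) L-rhamnose at OD600 near 0.5, cultures sampled hourly, flipped fraction per protease–substrate barcode pair counted by paired-end Illumina sequencing.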

Variant	area with substrate ENAYFQS	area with substrate ENCYFQS	area with substrate ENDYFQS	area with substrate ENEYFQS	area with substrate ENFYFQS	area with substrate ENGYFQS	area with substrate ENHYFQS	area with substrate ENKYFQS	area with substrate ENNYFQS	area with substrate ENPYFQS	area with substrate ENQYFQS	area with substrate ENRYFQS	area with substrate ENTYFQS	area with substrate ENVYFQS	area with substrate ENIYFQS	area with substrate ENMYFQS	area with substrate ENWYFQS	area with substrate ENYYFQS	area with substrate ENSYFQS
V157H	0.0439	0.0608	0.0548	0.0417	0.0533	0.0674	0.0788	0.0594	0.0501	0.0595	0.0473	0.0577	0.0488	0.0595					
G150M	0.0606	0.064	0.0666	0.0448			0.0591	0.0686	0.0579	0.0547		0.07	0.0779		0.0486	0.0464	0.0606	0.0667	
G153H	0.0415	0.0386	0.0593	0.0428	0.0313	0.0349	0.0454	0.0426		0.0251	0.0491	0.0364							0.0417
G153D	0.0527		0.0687	0.062	0.0511				0.0573			0.048	0.0387	0.0438					
G138E	0.0467						0.0608						0.0629			0.0511			0.0842
G166Y	0.0742	0.057	0.0557	0.0578			0.0486				0.0601			0.0557		0.0521			0.0359
G166H	0.0404	0.0558	0.0468	0.0596	0.0594	0.0546		0.0461	0.0562		0.053	0.0481	0.0556	0.0458		0.0555	0.0625	0.0697	
H143Q	0.0543	0.0574	0.0621	0.0663	0.0616	0.0539				0.0406	0.0487	0.0627	0.0533	0.0538	0.0553	0.0492			0.0722
H143V	0.0501	0.0347	0.0547	0.0689	0.0545	0.0591		0.0493	0.0648		0.0614		0.0568	0.0502	0.0792			0.0473	0.06
H143S	0.0699	0.058	0.0596	0.0572	0.0582			0.0574	0.0573			0.0982	0.0724	0.063	0.0883				
H143Y	0.0605	0.0624	0.0687	0.049	0.0947	0.0796	0.0543	0.0381		0.0728	0.0606	0.0834		0.0864	0.112	0.0856			
M188H	0.0657		0.0064					0.0436					0.0662						0.0609
M188F	0.0579	0.0691					0.0701	0.065	0.0255		0.0442		0.057					0.0586	0.0638
M188V	0.0606	0.0603	0.0657		0.0484	0.0718		0.0566		0.0703	0.064	0.067	0.0637	0.0694				0.0654	0.0378
M188G	0.0629	0.0742	0.0598	0.0713		0.0376	0.0476	0.0755	0.0629		0.0554	0.0593	0.0842		0.111	0.0391	0.0391		
L156A	0.104	0.0544		0.0569	0.0626	0.0569	0.0602		0.0134	0.0718		0.0544	0.0463		0.1		0.044		0.0671
L156F	0.062		0.0647	0.0569		0.0433			0.0264	0.0647	0.0568	0.0728	0.054	0.0587	0.0703				0.0646
S154E	0.0542	0.0429	0.0596	0.0448					0.0663		0.0663								
V165Q	0.047	0.0344		0.0648	0.0568		0.0391		0.0462		0.0526	0.0586	0.0397	0.0549					0.0484
V165H	0.0568		0.0492	0.0482		0.0584				0.0516	0.0467		0.0574	0.0371					
V165K	0.0526		0.0569	0.054		0.0706		0.0529			0.052	0.057	0.0526	0.0616	0.0696	0.0545	0.0535	0.0575	0.0617
F187S	0.0484	0.049	0.0463	0.0725	0.0712	0.0728	0.0801	0.0599	0.0534		0.0489	0.0447	0.0554					0.0626	0.0519
F187V	0.0365							0.0551		0.0695	0.0609		0.0571	0.0579					0.0559
F180Y	0.0729		0.0638	0.0703	0.0525	0.0664			0.0563	0.0595		0.0571		0.0795		0.0515			0.0632
N172D	0.034	0.0616	0.0574	0.0526	0.0557		0.0532	0.093	0.071	0.0801	0.0636	0.0737			0.0505		0.0045	0.0494	0.0595
N178P	0.0696		0.0513	0.0385				0.0536	0.0671		0.0367		0.0332						
D161L	0.0472	0.0543	0.0571	0.0545	0.0481	0.0535	0.0621		0.0659	0.055	0.0313	0.0404	0.0655	0.0475	0.0636			0.047	0.0632
D161N	0.043	0.0692	0.0741	0.0458	0.0457	0.0605			0.0627		0.0571	0.0563	0.0766		0.0707	0.0612	0.0472		0.0485
S158C	0.0835	0.0691	0.0816	0.0734		0.0723	0.0606		0.0423	0.0553	0.059	0.077	0.0872	0.0733					
S158K	0.0351		0.054	0.0569	0.059	0.0528		0.0556	0.0655	0.0399	0.0501	0.0927	0.0552	0.0459					0.0434
